Consider seven compounds from PubChem BioAssay (NCI).

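Cells were grown in 96-well plates and exposed to each compound for 48 hours at five concentrations; endpoints were interpolated linearly between bracketing concentrations, or set to the highest concentration if not reached. GI50 marks 50% less growth. TGI marks complete inhibition of growth.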

The assay concerns NCI-H322M lung. The assay is described as follows: NCI anticancer screen, dose series, 48 h.
Take `COc1ccc2c(c1)c(-c1cc3nc(-c4cn(C)c5ncc(Br)cc45)cc(N)n3n1)cn2C`: the GI50 is 1.59 µM and the TGI is 5.52 µM.
The corresponding values for `C#CCCCN(CCNc1ccnc2cc(Cl)ccc12)C(=O)CCC(=O)O[C@@H]1O[C@@H]2OC3(C)CC[C@H]4[C@H](C)CC[C@@H]([C@H]1C)[C@@]24OO3` are greater than 11.5 µM and greater than 11.5 µM.
The corresponding values for `Cn1cc(-c2cc(N)n3nc(-c4c[nH]c5ccc(F)cc45)cc3n2)c2cc(Br)cnc21` are greater than 100 µM and greater than 100 µM.
For `C=C1CCC2C3(C)COC(c4ccccc4F)OC3CCC2(C)C1C/C=C1/C(=O)OCC1O` (centres undefined), the GI50 was 9.98 µM and the TGI was 22.1 µM.
As to `COc1ccccc1Nc1nnc(-c2c[nH]c3ccccc23)o1`, the GI50 is 4.71 µM and the TGI was greater than 100 µM.
The corresponding values for `COc1ccc(C(=O)Nc2ccc(-c3ccc4c(c3)NC(=O)/C4=C\c3ccc[nH]3)cc2)cc1` are greater than 100 µM and greater than 100 µM.
The corresponding values for `O=C(Nc1cccc(-n2cnc3cc(-c4ccc(O)cc4)ccc32)c1)C1CC1` are 0.694 µM and 38 µM.
